Reference: the supplement of paper PMC3334620
In all, about 33,000 sequences were measured (“E-score (-0.5 to 0.5)”: median about -0.04, highest 2% from about 0.36 on). The list shows a part of the results.

What follows are sequences tested against T1, Hmlalpha2 (UniProt P0CY09) (assay: PBM E-score (8-mer binding enrichment) (E-score (-0.5 to 0.5)); higher = stronger / more preferred TF binding; most listed sequences are background and not binding sites). Settings: protein concentration: 200 nM; construct: GST-full length.
T1 sequence: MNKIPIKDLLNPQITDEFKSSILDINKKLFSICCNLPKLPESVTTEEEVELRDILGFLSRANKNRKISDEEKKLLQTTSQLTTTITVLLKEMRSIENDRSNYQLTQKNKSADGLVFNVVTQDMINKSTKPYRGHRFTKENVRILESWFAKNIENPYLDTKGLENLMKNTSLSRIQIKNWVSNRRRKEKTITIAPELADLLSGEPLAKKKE
Experimental: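 Universal 'all 10-mer' protein binding microarrays (Agilent AMADID 015681) probed with GST-tagged S. cerevisiae TFs (full-length or DBD) made by in vitro transcription/translation (PURExpress), about 100-200 nM. Bound TF was detected with fluorescent anti-GST. Each ungapped 8-mer (which stands for itself and its reverse complement) is scored by the PBM enrichment score (E-score), a modified Wilcoxon-Mann-Whitney statistic from -0.5 to +0.5, computed with the Universal PBM Analysis Suite. Scale: above 0.35 generally sequence-specific binding.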

| Sequence | PBM E-score |
| --- | --- |
| GAGACGCC | -0.324 |
| GTAACTCA | -0.0411 |
| GACTTGTA | 0.189 |
| TCCAGACA | -0.278 |
| AGCCCAGG | -0.274 |
| CCTCCTCA | -0.184 |
| AACTGAGT | 0.0172 |
| ACAGCTGT | -0.0242 |
| TAGCTACA | 0.203 |
| TAGCGAAA | -0.106 |
| TCGGCCGA | -0.231 |
| ATCAAAGC | -0.206 |
| ATGTGATG | 0.0776 |
| TCACCGGA | -0.133 |
| GGAGAAAC | -0.183 |
| ATCGCTGA | -0.163 |
| CAAGAGAC | -0.14 |
| ACATAGAT | 0.294 |
| CGCGGCGC | -0.0489 |
| CCCCTTTC | -0.262 |
| CCCCACAC | -0.298 |
| TTCAGCAA | 0.068 |
| ACAACCGC | 0.135 |
| TATCGGCA | -0.136 |
| CCCCAATC | -0.116 |

| Sequence | PBM E-score |
| --- | --- |
| ACTCGGAA | -0.0153 |
| CGGGAGTA | -0.023 |
| GCAACAGC | 0.0181 |
| ACCGCTCA | 0.0701 |
| GGGCCCAC | -0.224 |
| ATTTCGAC | 0.124 |
| CGTCGCTC | -0.218 |
| AATTTGAT | -0.118 |
| AAGAGCGA | -0.2 |
| GCAATCCA | -0.0623 |
| GAAACTCA | 0.0193 |
| GTCATGAC | 0.0573 |
| ACCCTAGT | -0.02 |
| CGAAACAA | 0.141 |
| ACCAAATG | -0.0992 |
| CGACTGCG | -0.0586 |
| GGGGTGCA | -0.335 |
| ACCATATA | 0.113 |
| CGGATAAG | -0.258 |
| AATCTCGA | -0.022 |
| CGTGGCCC | -0.235 |
| GCTCCAGC | -0.198 |
| GCCACGGC | -0.192 |
| AGTCGTAA | 0.146 |
| GGGAGCAA | -0.18 |

| Sequence | PBM E-score |
| --- | --- |
| GAAGCTCC | -0.218 |
| CCCAAGCA | -0.123 |
| CATACAGC | -0.129 |
| AAAACCAC | 0.00461 |
| GCGCGTGA | 0.134 |
| GGGTACAC | 0.0689 |
| ACACTAGG | 0.0823 |
| CTCCATAC | -0.168 |
| GACGCTTA | -0.0245 |
| GGCACGGA | -0.158 |
| CCTCTCTA | -0.308 |
| CTCTTGTA | 0.299 |
| GGATAATA | 0.0328 |
| AAGGTGAC | -0.0962 |
| AAAGATTC | 0.196 |
| CTAACATA | 0.273 |
| GTCGCAAC | 0.0502 |
| GATTCCAC | -0.0363 |
| AGGACCAC | -0.149 |
| ACGTAGAT | 0.267 |
| CACAAAGA | 0.152 |
| GGCTTCGA | -0.126 |
| CGCGCCAG | -0.117 |
| ACCTCGTC | -0.13 |
| GGCGGGAC | -0.194 |

| Sequence | PBM E-score |
| --- | --- |
| GTCCTTTA | -0.00742 |
| GTGCCTCA | -0.299 |
| GGTGGAAA | -0.239 |
| TATCCAAA | 0.121 |
| TCTGATAA | -0.0586 |
| GCTAAAGA | 0.131 |
| GGTAAAAA | 0.265 |
| ACTGTCGC | -0.165 |
| AAGGACAC | 0.0292 |
| CACGCGGC | 0.0499 |
| CGATGGGC | -0.218 |
| ATGAGCTC | -0.0421 |
| CAATACTC | 0.119 |
| CTAGAAAA | -0.0454 |
| CTCTGTTC | -0.0134 |
| GGGCTCGA | -0.0921 |
| AAAATTGG | -0.167 |
| CCGTTGTC | 0.0589 |
| ACGGCTAT | 0.0646 |
| CACGGCGC | 0.122 |
| GGTGGTTA | -0.146 |
| GAATTAAC | 0.309 |
| CAGTAGAC | 0.00055 |
| CTGGTTGC | 0.0155 |
| AACACAGA | 0.35 |

| Sequence | PBM E-score |
| --- | --- |
| CCCCCGAA | -0.18 |
| AGCCACTG | -0.148 |
| CATCCTAC | -0.116 |
| GAATCTAA | 0.109 |
| GCGATTTA | -0.00092 |
| GATAGGGC | -0.401 |
| AGCTGGCC | -0.0784 |
| AAAGGAAT | 0.0205 |
| GAGCCTCA | -0.436 |
| GGTTGCAC | 0.0404 |
| GCCGGAAA | -0.207 |
| TAGTCACA | 0.0266 |
| CCCGTATC | -0.2 |
| CTAAGGAG | -0.315 |
| ATCCCCAA | 0.0947 |
| ATAGAAAT | 0.0699 |
| CGACTATC | -0.104 |
| AATCTGAC | 0.0953 |
| AGTGATTA | 0.0733 |
| CCCTCCGA | -0.229 |
| GGCTCTCA | -0.207 |
| CATACTTA | 0.217 |
| TAGGGCGA | -0.216 |
| CAAGTCTA | -0.0401 |
| CCTGGTCC | -0.362 |

| Sequence | PBM E-score |
| --- | --- |
| TAATGAGA | 0.0766 |
| CCTATTCG | -0.25 |
| CTCTGATA | -0.0582 |
| CGCGCAGC | -0.0062 |
| AAGATCAG | -0.187 |
| ACTCGGTA | -0.1 |
| TAGCCCTA | -0.152 |
| CTGTGTCC | 0.0461 |
| ACTCTAGC | -0.238 |
| CTTTTCTC | -0.0849 |
| AAAGTCGA | -0.0831 |
| GAGCACGC | -0.0454 |
| AATCATAC | 0.195 |
| AACACGCT | 0.387 |
| ACCGTCTA | -0.225 |
| GTCCCGAA | -0.186 |
| AAGACACA | 0.183 |
| AAATATCT | 0.00858 |
| CAGCATGA | -0.0607 |
| ACCGGGTA | 0.0154 |
| ATATATAT | 0.303 |
| GCTCACAA | -0.131 |
| ATATCAAC | 0.115 |
| ACCGCGTG | 0.108 |
| CTAGGCTC | -0.193 |

| Sequence | PBM E-score |
| --- | --- |
| CGTCCAAC | 0.184 |
| CGATGTCA | 0.144 |
| ACGTCTCT | -0.0679 |
| CCATCATC | -0.119 |
| AACGCTAG | 0.0508 |
| TCCAGGCA | -0.0301 |
| AGAACGAG | 0.164 |
| GTGCCCAC | -0.282 |
| CCAAGTAA | 0.292 |
| CTTTTAGA | -0.0975 |
| AGAGTTAT | -0.0492 |
| GACGAGTA | 0.0254 |
| CCCCCGCC | -0.366 |
| GACACAGC | 0.198 |
| CCGTCCTC | -0.274 |
| AACCTTTA | -0.0633 |
| AAACCGGA | -0.0516 |
| CTTACGGC | -0.301 |
| CTGGCGCA | -0.288 |
| GCTTTGCA | -0.106 |
| AACACCCC | -0.0358 |
| CACCCGCC | -0.0238 |
